Results: article PMC8600046
These are yes or no findings as the source states them, for the method shown. Binding seen in cells or lysates may run through a third protein. Some results given as binding are weak or reduced against the parent protein; the word gives no strength.

The chains behind the UniProt entries cited, without tags or fusion partners.
UniProt Q92968: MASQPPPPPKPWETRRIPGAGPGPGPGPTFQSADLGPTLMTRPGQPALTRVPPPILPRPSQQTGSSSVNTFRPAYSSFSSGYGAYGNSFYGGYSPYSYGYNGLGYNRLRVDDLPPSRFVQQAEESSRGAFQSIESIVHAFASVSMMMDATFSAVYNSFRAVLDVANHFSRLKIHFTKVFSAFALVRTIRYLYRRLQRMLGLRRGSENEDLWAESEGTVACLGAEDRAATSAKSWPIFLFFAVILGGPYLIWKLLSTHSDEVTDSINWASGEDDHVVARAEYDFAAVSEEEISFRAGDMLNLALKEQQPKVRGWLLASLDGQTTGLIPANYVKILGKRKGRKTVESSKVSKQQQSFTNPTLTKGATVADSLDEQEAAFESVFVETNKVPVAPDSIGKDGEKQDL

T1: PXMP4 (UniProt Q9Y6I8)
T1 sequence: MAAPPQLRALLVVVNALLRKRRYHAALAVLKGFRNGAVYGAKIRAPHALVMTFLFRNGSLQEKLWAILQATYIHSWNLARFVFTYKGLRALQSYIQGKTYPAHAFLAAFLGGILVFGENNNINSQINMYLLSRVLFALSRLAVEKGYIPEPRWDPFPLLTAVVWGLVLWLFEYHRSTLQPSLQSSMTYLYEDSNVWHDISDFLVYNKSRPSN

T2: PEX12 (UniProt O00623)
T2 sequence: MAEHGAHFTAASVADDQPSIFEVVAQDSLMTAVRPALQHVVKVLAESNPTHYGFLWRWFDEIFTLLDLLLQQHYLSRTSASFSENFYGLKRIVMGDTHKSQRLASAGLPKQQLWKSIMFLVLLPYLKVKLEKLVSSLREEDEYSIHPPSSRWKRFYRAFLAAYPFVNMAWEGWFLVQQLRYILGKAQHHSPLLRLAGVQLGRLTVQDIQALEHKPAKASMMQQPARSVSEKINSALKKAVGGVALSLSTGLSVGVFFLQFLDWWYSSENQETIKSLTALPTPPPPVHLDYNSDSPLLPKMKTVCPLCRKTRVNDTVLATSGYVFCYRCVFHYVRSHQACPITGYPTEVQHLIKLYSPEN


How the values were obtained:
Assay in all cases: FRET or BRET; BRET in living HEK293 cells co-transfected with Rluc (donor) and YFP (acceptor) fusions, acceptor to donor ratio 3:1; read 48 h later with coelenterazine 30 μM; all eight combinations of N- or C-terminal fusions tested in duplicates; interaction assumed if at least one combination gave a BRET ratio above the threshold of 0.094
PEX13 = PEX13 (UniProt Q92968)
PXMP4 = target: T1, PXMP4
PEX12 = target: T2, PEX12

Binder	binding (PEX13)	binding (PXMP4)	binding (PEX12)
peroxisome biogenesis factor 26 (PEX26) wild-type (protein, UniProt Q7Z412-1 1-305) MKSDSSTSAAPLRGLGGPLRSSEPVRAVPARAPAVDLLEEAADLLVVHLDFRAALETCERAWQSLANHAVAEEPAGTSLEVKCSLCVVGIQALAEMDRWQEVLSWVLQYYQVPEKLPPKVLELCILLYSKMQEPGAVLDVVGAWLQDPANQNLPEYGALAEFHVQRVLLPLGCLSEAEELVVGSAAFGEERRLDVLQAIHTARQQQKQEHSGSEEAQKPNLEGSVSHKFLSLPMLVRQLWDSAVSHFFSLPFKKSLLAALILCLLVVRFDPASPSSLHFLYKLAQLFRWIRKAAFSRLYQLRIRD	binds	binds	binds
PEX26 p.Pro117Leu (protein, UniProt Q7Z412-1 1-305) MKSDSSTSAAPLRGLGGPLRSSEPVRAVPARAPAVDLLEEAADLLVVHLDFRAALETCERAWQSLANHAVAEEPAGTSLEVKCSLCVVGIQALAEMDRWQEVLSWVLQYYQVPEKLLPKVLELCILLYSKMQEPGAVLDVVGAWLQDPANQNLPEYGALAEFHVQRVLLPLGCLSEAEELVVGSAAFGEERRLDVLQAIHTARQQQKQEHSGSEEAQKPNLEGSVSHKFLSLPMLVRQLWDSAVSHFFSLPFKKSLLAALILCLLVVRFDPASPSSLHFLYKLAQLFRWIRKAAFSRLYQLRIRD	no binding	binds	no binding
PEX26 p.Leu153Val (protein, UniProt Q7Z412-1 1-305) MKSDSSTSAAPLRGLGGPLRSSEPVRAVPARAPAVDLLEEAADLLVVHLDFRAALETCERAWQSLANHAVAEEPAGTSLEVKCSLCVVGIQALAEMDRWQEVLSWVLQYYQVPEKLPPKVLELCILLYSKMQEPGAVLDVVGAWLQDPANQNVPEYGALAEFHVQRVLLPLGCLSEAEELVVGSAAFGEERRLDVLQAIHTARQQQKQEHSGSEEAQKPNLEGSVSHKFLSLPMLVRQLWDSAVSHFFSLPFKKSLLAALILCLLVVRFDPASPSSLHFLYKLAQLFRWIRKAAFSRLYQLRIRD	binds	no binding	binds
